Assay results reported in the supplement of paper PMC11417369.
The list shows a part of the results.

System: PfAP2-HC AP2 domain (GST-tagged)
Experiment: gcPBM binding intensity (ln(normalized median fluorescence intensity)); higher = stronger DNA binding
How it was run: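 Using an Agilent 4 × 180k array, primer-extended double-stranded 36-bp intergenic genomic probes and negative controls were exposed for 1 h to GST-fused P. falciparum DNA-binding domains expressed in E. coli. Binding was carried out in 1× PBS with 1% milk, 0.2 mg/ml BSA, 0.5% salmon testes DNA and 0.03% Triton X-100, and protein was detected with Alexa488 anti-GST antibody and a 488 nm scan. Binding intensity is the highest Masliner-normalised natural-log median intensity across replicate spots of either probe orientation.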

Row | Sequence | gcPBM binding intensity (ln)
1 | AGTATAAAATTTGGTTGTACATTTTTAAAAAAATTA [XGTACX_site7519] | 9.37
2 | AAAATTAAATTATTTACACACAATATTAAAATATTT [CACACA_site3244] | 9.62
3 | TTTTTTTTTTTTTATACACACATTAAAATAAAAAAG [CACACA_site3946] | 9.31
4 | AAAGAAAAAAAAAAAACACACAAAAAAAATCAAAAT [CACACA_site2871] | 9.89
5 | CTCTTCCTTAATTTTTGTACTTAAAATTTTTTTTTT [XGTACX_site1628] | 9.79
6 | TTATGCAAAAATAAATCAATATGTTGATATGTAAAT [GTGCAC_negctrl_site128] | 9.66
7 | AACATATACTGTTTATGTACACATTGTTATATTAAT [XGTACX_site4276] | 9.81
8 | ATATAATTTAATTTCTGTACATAAGAGAAAAAACAA [XGTACX_site4865] | 9.62
9 | TACATTTTATGCATTTGTACACAAATAAATAAATAA [XGTACX_site2652] | 9.42
10 | ACTTTAAAAAGATTCACACAAAATATATAAAAATAT [CACACA_site5334] | 9.5
11 | ATATCAATTTTTGGTGGTACGTAGGAAGTTTCAGAA [XGTACX_site6881] | 9.66
12 | ATTGATCTTTATTGTTGTACATTAAACGTTAATTTT [XGTACX_site1788] | 9.79
13 | TACCTATAAAAGTACACACACACACGGATATAAATA [CACACA_site6569] | 10.8
14 | ACTATAAATATATACACATGCGCACACACAAGTGGG [TGCATGCA_site432] | 10.1
15 | AATAAAAAAATTAAAATTAAAAAATTAAAACTTAAA [CACACA_negctrl_site987] | 9.49
16 | ATGGAAATTTTATCATGTACATATACCGTTGAATAA [XGTACX_site5420] | 9.63
17 | TATTATATAATTTTAACACACAAGAATATAAACTTT [CACACA_site1363] | 9.55
18 | TAACAAAATGTAAATAAACACACATATATATATATA [CACACA_site8352] | 10
19 | AACATTCTATGTTGCACACAAAGAGAAAAATTTATT [CACACA_site3995] | 9.78
20 | TAATTTAAATGATGTAGTACATATAAATATATCTAA [XGTACX_site262] | 9.51
21 | TGAAGGAATACAGCTCGTACATGTGTAAAGAGATAA [XGTACX_site500] | 9.96
22 | AAAAAGAAAAAACTTACACACATATATACCCCCATG [CACACA_site4463] | 10.2
23 | TTAAAAAATATATGCGTGCACTAATATTTCATATGC | 9.58

Row | Sequence | gcPBM binding intensity (ln)
24 | TGAATTAACAAATAGACACACATATATATATATATA [CACACA_site3195] | 9.69
25 | TACTATTTTTATAATACACACATATATTTGTGATAT [CACACA_site1775] | 9.84
26 | ACCATTTGTACTTACGCACACATAAAATATATATAT [CACACA_site1545] | 9.97
27 | TGTGGCCCTGCGAGGTGGTCATCATGAATACGAAAA [XGTACX_site1526] | 9.23
28 | TCAAAAATTTATATAGTGCAATATATATATAATGTA | 9.45
29 | TTGTAATATATAAAAGTGCATATATGGTTCCATATA [GTGCAC_site9544] | 9.65
30 | TAATTTATTGTACGTGCATGCTATTTTTTATTTTTA [TGCATGCA_site1059] | 9.92
31 | ATATGTGAATAAAAATGTACGTGTTCTTTTTTTTTT [XGTACX_site320] | 9.72
32 | AACAAAAAAACAAACACACACACACCCATATATATA [CACACA_site3652] | 10.6
33 | TCATACATTTTCCTTGCACACATTTATAATTAATGT [CACACA_site614] | 10.3
34 | AAAAAAATCACATAATATACTTTATTTTATTTTGTA [GTGCAC_negctrl_site562] | 9.56
35 | ACAAAGAACTATAATACACACAAGAATATATTGGAT [CACACA_site7771] | 10.3
36 | TTATAAGATTTATGTACACACATATACACCCCTCTA [CACACA_site4562] | 9.94
37 | TATATATAGAAACACACACACACATATATATATATT [CACACA_site2539] | 11.3
38 | GTTATAGAAGCATTCACACACACACCGACATACACA [CACACA_site4914] | 10.3
39 | ATAAATTATATTCAAGTGCATGTAACTTATTATTAT | 9.64
40 | AATAATTAAATATATTTATAACAGGAAAATATTTAT [XGTACX_negctrl_site175] | 9.51
41 | TAAATAATCATAGTTCTACACACCTATATTGCAAAA [CACACA_site8190] | 9.68
42 | AAAAAAAAAAATTCCAGTACACACAATAATACTAAA [XGTACX_site5930] | 9.92
43 | ATATATATAATATGATGTACTATTTTGATAAAAAAT [XGTACX_site3975] | 9.67
44 | AATATATTGCACCATTGGACCTGAATAATTCTTCCA [CACACA_negctrl_site1071] | 9.54
45 | GTAAGAAACGGACACACACACATATATATATATATA [CACACA_site4593] | 10.9
46 | AAATAGTCTTCTCTTGCATGTAACAAATATATATAT [TGCATGCA_site428] | 9.59

Row | Sequence | gcPBM binding intensity (ln)
47 | TAGTAAGAATTACTGTGTACTAAAATATTAAAAAGT [XGTACX_site2578] | 9.77
48 | AATAAAAACAAACAAAAAAACAAATAAATAAATAAA [CACACA_negctrl_site483] | 9.72
49 | ATATTTTTTATAAAATGTACTTATTATTAGAATATA [XGTACX_site2460] | 9.4
50 | ACATATAAGTTATATACACACAATAATATGTAAATA [CACACA_site6766] | 9.89
51 | TACAAAATATGGTAATAAAGTAGTTACATGAATTGG [XGTACX_negctrl_site522] | 9.65
52 | AATATATACATATGTATGCACTTTTTAATTATTTTT | 9.84
53 | TATTATAATATATTTGTGCACATAATACCTCCGCTA [GTGCAC_site9570] | 9.66
54 | GTTATAGAAGCATTCACACACACACGGACATACACA [CACACA_site6801] | 10.7
55 | TTTTTTTATAAAAATGAACACACACCGATATATATA [CACACA_site9161] | 10.2
56 | AAAAAAAAAAAAAAAACACACATAAATAGCTCAAAT [CACACA_site3973] | 9.92
57 | CACATACCCATACAAACACACATTATATATATATAT [CACACA_site4965] | 10
58 | ATATCGTGTGCATTAACACACATTTATTTGAATAAA [CACACA_site7162] | 9.84
59 | GATATATAAATAGATACACACATACATACATACATA [CACACA_site6260] | 10.1
60 | TACGATTAAAAAAAATGTACAGATTTTTATAGAATA [XGTACX_site6561] | 9.36
61 | ATATTACCCATATATGCACACATTGTAGTTATTTAT [CACACA_site2636] | 10.2
62 | TTTTGTAGCAAAAAATAGGAAAAAAAAAAATTAAAT [GTGCAC_negctrl_site8] | 9.35
63 | ATATAATTACCATATGGTACACACATATATATATGT [XGTACX_site7393] | 10.2
64 | TTAAGATACAAAAAAGTGCATATTTTTTAACAAAAA | 9.57
65 | TTAAGATATATAAAGAGTACACATAAGAGTAATGCT [XGTACX_site58] | 9.76
66 | TATAATACATTATATTGTACTATATTATAATAAATT [XGTACX_site5934] | 9.53
67 | ACAAATAAAAATATTACACACACTATTCTAGTGATA [CACACA_site6812] | 9.99
68 | GACAAATTATTGTGTACACAATATTATTATATATAC [CACACA_site6020] | 9.82
69 | CTTATGTTTTTTAAGTGTACATATTATACGTATTAT [XGTACX_site1176] | 9.85

Row | Sequence | gcPBM binding intensity (ln)
70 | TAAATATATATAATTACACACTTTTCTATAATATGA [CACACA_site711] | 9.58
71 | AATATAAACATAGATAGATAAATAAATAAATAAACA [GTGCAC_negctrl_site567] | 9.8
72 | AACAGATATATATGTAGTACATGTTCTAGATATTTT [XGTACX_site1208] | 9.75
73 | AATAATTGTTAAAGGTGTACAATACGTATGTAAGAA [XGTACX_site1328] | 10.1
74 | ATGTAGACATAATGGGGTACAAAAAAAAAAAAAAAA [XGTACX_site881] | 9.49
75 | TATCATTTTGTATATAGTACATATATAAAATCGTTA [XGTACX_site3875] | 9.48
76 | AAAAAAAATAAAAATAAAAATAAAAATAAAAATAAA [GTGCAC_negctrl_site437] | 9.21
77 | CAAGCACCCAGACACACACACACACCCACACCCACA [CACACA_site369] | 11.2
78 | ATAAAAATAACATATAAACACACATATATATATATA [CACACA_site9267] | 9.64
79 | AGTCATTAAATATAATGTACATGGAAAAACAGCTGA [XGTACX_site7944] | 9.73
80 | GGAATATTTATACATACACACATATATTTATTTATA [CACACA_site6883] | 9.9
81 | AATAATAATAAATATACACACATCATACAATTAACA [CACACA_site3679] | 10.5
82 | TATTTTTTTCTTACTACACACATATAGATGCTTTCC [CACACA_site7825] | 9.83
83 | GGTCTTTTCAACACACGTACATAAAAATATTATACA [XGTACX_site5360] | 9.78
84 | TAAACATATAGAGGGGTGCAAAGAATTGTAAAATTT | 9.72
85 | TATATATTGATATGCACACCTATGTATTGATGTATA [CACACA_site1073] | 9.77
86 | TATATATATAATTAAAGTACATATAACCACAAAAAT [XGTACX_site7289] | 9.85
87 | ACATAAATTTAATACACACACAAAGAAAAAAAAAAA [CACACA_site4088] | 10.9
88 | TAATATAATATATATACACACAAGAAATACAAAACG [CACACA_site1378] | 10.4
89 | ATATTATTATAATATACATATATATATATAATATAT [CACACA_negctrl_site480] | 9.57
90 | ACCTAAAAGGTATAATATATAAATAAAAAAAAAAAT [CACACA_negctrl_site134] | 9.72
